The campaign covered roughly 410,000 compounds. About 310 (0.076%) were called active. The shares of active, inactive and inconclusive entries below differ from those in the screen. The call rests on the fitted dose curve; in most records, active means well fitted curve in the direction sought with a large enough effect; inconclusive means small, poorly fitted or top-dose-only effect; inactive means flat fitted curve, though single readings scatter. Potencies of inconclusive entries are doubtful fits and often do not repeat.
These compounds were tested against DNA dC->dU-editing enzyme APOBEC-3G (Homo sapiens) (UniProt Q9HC16) (assay: qHTS for Inhibitors of Vif-A3G Interactions: qHTS). Settings: HeLa A3G-eYFP + Vif (tagged APOBEC3G with the HIV-1 protein that degrades it), YFP fluorescence, overnight; series mostly up to 46.1 µM.
Sequence of UniProt Q9HC16 (Q9HC16 whole entry, looked up): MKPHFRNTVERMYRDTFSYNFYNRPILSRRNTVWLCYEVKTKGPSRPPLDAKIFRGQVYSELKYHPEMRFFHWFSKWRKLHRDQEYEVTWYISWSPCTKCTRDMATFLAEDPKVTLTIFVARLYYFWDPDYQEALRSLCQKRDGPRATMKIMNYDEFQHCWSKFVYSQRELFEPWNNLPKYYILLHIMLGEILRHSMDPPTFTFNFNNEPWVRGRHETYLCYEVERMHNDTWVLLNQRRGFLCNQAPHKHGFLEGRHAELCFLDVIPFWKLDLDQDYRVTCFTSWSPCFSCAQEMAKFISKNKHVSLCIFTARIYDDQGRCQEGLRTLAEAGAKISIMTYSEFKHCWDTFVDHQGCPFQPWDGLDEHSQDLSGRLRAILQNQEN
Summary of the method: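 HeLa cells stably expressing Vif and C-terminally eYFP-tagged A3G, seeded overnight at 37 deg C, then exposed to compound by pintool overnight at 37 deg C. Rise in yellow fluorescence (Ex 488/Em 500-530, Acumen) marks blocked Vif-driven A3G degradation.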
Further: nearly all actives have a fitted effect of over 60% in size.
Potency means the concentration at half of the fitted maximal effect; tags describe the fitted curve by direction and shape.

Structure (SMILES)	Potency
CCNc1ccc(Br)cc(C(=O)/C=C/c2ccc(Cl)cc2Cl)c1=O	inconclusive: 17.8 µM [inhibitor, single point]
CCOC(=O)c1cc(-c2ccccc2)sc1NC(=O)C(C)(C)C	inactive
Cc1ccc(-c2csc(N(CCCN3CCOCC3)C(=O)c3ccco3)n2)cc1	inactive
Cc1[nH]c2ccc(C(=O)Nc3ccc(F)cc3)cc2c1C	inactive
Cc1ccc(CN2CCN(CCCc3ccccc3)CC2CCO)cc1 (stereo not drawn)	inactive
CCN1c2ccccc2NC2C1C(C(C)=O)C(=O)N2c1ccc(Cl)cc1 (stereo not drawn)	inconclusive: 15.8 µM [inhibitor, partial curve, poor fit]
Cc1cc(C)c2sc(N(CCCN(C)C)C(=O)CN3C(=O)c4ccccc4C3=O)nc2c1	inconclusive: 35.5 µM [inhibitor, partial curve, poor fit]
O=C(Nc1cc(-c2nc3ncccc3o2)ccc1Cl)c1cccs1	inconclusive: 17.8 µM [inhibitor, single point]
Cc1ccc(S(=O)(=O)Nc2ccc3[nH]c(=O)sc3c2)cc1C	inactive
O=C(CSc1nnc2c(n1)[nH]c1ccc(S(=O)(=O)N3CCOCC3)cc12)Nc1ccc(F)c(F)c1	inconclusive: 35.5 µM [inhibitor, single point]
COc1cccc(-n2c(=O)c3cc(OC)c(OC)cc3n(CC(=O)Nc3ccccc3)c2=O)c1	inactive
COc1ccc(NC(=O)Cc2ccc(-c3ccccc3)cc2)cn1	inconclusive: 11.2 µM [inhibitor, partial curve]
O=C1/C(=C/c2ccc(N3CCCC3)cc2)NC(=S)N1C1CC1	active: 5.62 µM
Cc1cc(Cl)ccc1NC(=O)CN1CCC(C(O)(c2ccccc2)c2ccccc2)CC1	inactive
Cc1ccc(C)c(CSc2nc3[nH]ncc3c(=O)[nH]2)c1	inconclusive: 0.562 µM [inhibitor, full curve, poor fit]
CC(=O)N1CCN(C2=NC(=O)/C(=C/c3ccc(OS(=O)(=O)c4ccccc4)cc3)S2)CC1	inactive
N#Cc1c([N+](=O)[O-])cc([N+](=O)[O-])cc1S(=O)(=O)Cc1ccccc1	inconclusive: 3.16 µM [inhibitor, single point]
Cc1ccc(C)c(-n2c(SCC(=O)NCC3CCCO3)nnc2-c2ccoc2C)c1 (stereo not drawn)	inactive
Cc1onc(-c2ccccc2)c1C(=O)Nc1sc2c(c1C(N)=O)CCC2	inactive
O=[N+]([O-])c1ccc(S(=O)(=O)N(CCCN2CCOCC2)Cc2cccs2)cc1	inactive
COc1cc(/C=C(\C#N)c2nc3ccccc3[nH]2)ccc1O	inconclusive: 12.6 µM [inhibitor, partial curve]
COC(=O)c1ccc(/C=C(\C#N)c2nc3ccccc3s2)cc1	inconclusive: 2 µM [inhibitor, partial curve, poor fit]
CC(=O)Nc1ccc(-c2ccnc3c2CC(C)(C(=O)NCc2cccc(Cl)c2)O3)cc1 (stereo not drawn)	inconclusive: 11.2 µM [inhibitor, single point]

Structure (SMILES)	Potency
C=C1C(=O)C=C[C@]2(C)C[C@@H]3OC(=O)[C@](C)(O)[C@H]3C[C@@H]12	inconclusive: 7.08 µM [inhibitor, partial curve, poor fit]
CCN(CC)c1ccc(/C=C2\SC(=O)N(C(C)C)C2=O)o1	inconclusive: 3.55 µM [inhibitor, partial curve, poor fit]
CN(C)c1ccc(C=Nc2ccccc2C(N)=O)cc1	inconclusive: 35.5 µM [inhibitor, single point]
CCC(C)Nc1nc(-c2cccc(OC)c2O)nc2ccccc12 (stereo not drawn)	inactive
CCOc1ccc(C(=O)N2CCc3cc(OC)c(OC)cc3C2)cc1OCC	inconclusive: 17.8 µM [inhibitor, single point]
COc1ccccc1-c1cc(-c2ccc(O)cc2)nc(N)c1C#N	inconclusive: 12.6 µM [inhibitor, single point]
CCCC(=O)Nc1nc2ccc(NC(=O)c3cccnc3)cc2s1	inconclusive: 6.31 µM [inhibitor, partial curve, poor fit]
CC(=O)Nc1nonc1-c1nc2ccccc2n1CCC(C)C	inconclusive: 10 µM [inhibitor, partial curve, poor fit]
O=C1c2ccccc2C(=O)c2c(/C=C/N3CCCCC3)ccnc21	inconclusive: 17.8 µM [inhibitor, partial curve, poor fit]
COc1cc(OC)cc(C(=O)N/N=C\c2ccoc2)c1	inconclusive: 15.8 µM [inhibitor, single point]
CC(C)c1nnc(NC(=O)c2nc(S(=O)(=O)Cc3ccccc3F)ncc2Cl)s1	inconclusive: 20 µM [inhibitor, single point]
CC1=NN(c2nc3ccccc3[nH]2)C(=O)C1Cc1ccccc1 (stereo not drawn)	inconclusive: 35.5 µM [inhibitor, single point]
COc1ccccc1Nc1c2c(nc3ccccc13)CCC2	inconclusive: 3.16 µM [inhibitor, full curve, poor fit]
O=c1cc(-c2ccccc2)[nH]c2nc3ccccc3n12	inconclusive: 4.47 µM [inhibitor, partial curve]
COc1cc(NS(=O)(=O)c2ccc3oc(=O)c4ncn(C)c4c3c2)cc(OC)c1	inconclusive: 31.6 µM [inhibitor, single point]
COc1ccccc1-n1c(SCC(=O)Nc2ccc(C)cc2)nc(O)cc1=O	inactive
O=[N+]([O-])c1ccc(C=Nc2cccc3ccccc23)s1	inconclusive: 20 µM [inhibitor, single point]
COc1ccc(C2C=C(c3ccc(C)c(C)c3)Nc3ncnn32)c(OC)c1OC (stereo not drawn)	inconclusive: 7.08 µM [inhibitor, partial curve, poor fit]
CCOC(=O)c1cc(C)nc(Sc2ccc(C)cc2)c1C#N	inconclusive: 8.91 µM [inhibitor, partial curve, poor fit]
CN(/N=C/c1ccc(-c2ccc([N+](=O)[O-])cc2)o1)c1ccccc1	inconclusive: 1.58 µM [inhibitor, full curve, poor fit]
Cc1ccc(NC(=O)Nc2nnc(SCC(=O)N3CCC(C)CC3)s2)cc1	inactive
CCOC(=O)c1cnc2c(ccc3ccccc32)c1Nc1ccc(OC)c(OC)c1	inconclusive: 2.82 µM [inhibitor, full curve]
Cc1[nH]c2ccccc2c(=O)c1C(=O)/C=C/c1ccccc1	inconclusive: 3.55 µM [inhibitor, full curve, poor fit]

Structure (SMILES)	Potency
COc1ccc(NC(=O)CC2C(=O)N(c3ccc(Cl)cc3)C(=S)N2CCc2ccncc2)cc1 (stereo not drawn)	inactive
COc1ccc(C(=O)NCCn2cc(SCC(=O)NCc3ccco3)c3ccccc32)cc1	inactive
Cc1cccc(CN2CCCC(C(=O)Nc3ccc(-c4cscn4)cc3)C2)c1 (stereo not drawn)	inconclusive: 25.1 µM [inhibitor, single point]
N#Cc1nc(-c2ccccc2Cl)oc1N1CCOCC1	inactive
OC[C@H](O)[C@H](O)[C@@H](O)[C@@H](O)[C@@H]1SC(c2ccccc2)=NN1c1ccccc1	inactive
Cc1n[nH]c(=S)n1/N=C/c1ccc(-c2ccccc2[N+](=O)[O-])o1	inconclusive: 17.8 µM [inhibitor, single point]
O=C(COC(=O)c1cccnc1SCC(=O)NCc1ccccc1)NCc1ccccc1	inconclusive: 35.5 µM [inhibitor, partial curve, poor fit]
COC(=O)C(NC(C)=O)(Nc1nc2c(C)cc(C)cc2s1)C(F)(F)F (stereo not drawn)	inconclusive: 35.5 µM [inhibitor, single point]
Cc1cc2oc(=O)cc(CN3CCCCC3C)c2cc1Cl (stereo not drawn)	inactive
O=C(CCl)Nc1ccc(Oc2cnc3ccccc3n2)cc1	inconclusive: 35.5 µM [inhibitor, single point]
COC(=O)c1ccccc1NS(=O)(=O)c1ccc2c(c1)oc(=O)n2C	inconclusive: 2.82 µM [inhibitor, full curve, poor fit]
COc1cc(C(=O)NCCOc2cc(C)cc(C)c2)cc(OC)c1OC	inconclusive: 1.78 µM [inhibitor, full curve, poor fit]
Cc1cccc(Cn2cnc3c(cnn3C(C)(C)C)c2=O)c1F	inactive
O=C(CN1CC[n+]2c(-c3cccs3)csc21)c1ccc(-c2ccccc2)cc1	inactive
Cc1ccc(C=Nc2ccccc2C(N)=O)cc1	inconclusive: 5.62 µM [inhibitor, full curve, poor fit]
CCOC(=O)c1cccc(NS(=O)(=O)c2ccc3[nH]c4c(c3c2)CCCC4)c1	inconclusive: 7.94 µM [inhibitor, partial curve, poor fit]
CC1=C/C(=C\C=C(C#N)C#N)N(C)c2ccccc21	active: 1.78 µM
N#CC1=C(N)NC(=S)C(C(N)=O)C1c1ccccc1F (stereo not drawn)	inconclusive: 35.5 µM [inhibitor, single point]
CCOc1ccccc1NC(=O)c1cccc(NC(=O)c2ccco2)c1	inconclusive: 1.12 µM [inhibitor, full curve, poor fit]
CCOC(=O)c1ccc(N2C(=O)c3n[nH]c(-c4cccs4)c3C2c2ccc(CC)cc2)cc1 (stereo not drawn)	inactive
COc1ccc(/C=C/c2ccc3cccc(O)c3n2)c(OC)c1OC	inconclusive: 3.55 µM [inhibitor, full curve, poor fit]
COCCCNC(=O)C(=O)Nc1ccc2c(c1)N(S(=O)(=O)c1cccs1)CCC2	inconclusive: 1.12 µM [inhibitor, full curve, poor fit]
